Assay results: the BET-seq Pho4 binding data (Le et al. 2018)
The other results are listed elsewhere or left out. Values were computed here from the reads of four pooled replicates and scatter widely.

target: T1, Pho4 (S. cerevisiae) (UniProt P07270); assay: relative binding free energy (BET-seq); higher = weaker binding; details: reference: library average
T1 sequence: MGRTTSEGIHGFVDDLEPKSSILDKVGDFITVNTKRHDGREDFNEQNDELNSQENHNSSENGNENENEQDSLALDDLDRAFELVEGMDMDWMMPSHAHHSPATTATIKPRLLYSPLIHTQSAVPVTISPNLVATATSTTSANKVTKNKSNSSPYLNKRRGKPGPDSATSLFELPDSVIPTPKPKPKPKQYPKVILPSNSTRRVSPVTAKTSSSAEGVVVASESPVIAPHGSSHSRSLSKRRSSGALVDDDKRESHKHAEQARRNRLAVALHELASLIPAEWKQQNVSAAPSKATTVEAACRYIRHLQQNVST

Row | Sequence | relative binding free energy [kcal/mol]
1 | ATTGGCACGTGTTCTA | -0.04
2 | TGCCTCACGTGGGGGT | 0.06
3 | GATCGCACGTGCGTGG | -0.08
4 | CTTGTCACGTGTTGTG | 0.05
5 | TGCTTCACGTGGCTGG | 0.28
6 | GGTAGCACGTGAGGTC | 0.2
7 | CGGTTCACGTGGTCTG | 0.19
8 | ATGGTCACGTGGGCGT | -0.13
9 | CTTGTCACGTGCTGGG | 0.06
10 | TTCGACACGTGAGTTA | 0.37
11 | ATTGGCACGTGAGCAG | 0.03
12 | GGGAGCACGTGAAGCG | 0.19
13 | ATTTTCACGTGGACAT | 0.21
14 | GTAGTCACGTGTCTGT | 0.01
15 | TGGGTCACGTGGGGGC | 0.06
16 | GTGGGCACGTGGCGAG | -0.13
17 | GTAAACACGTGCGGTT | -0.06
18 | TGTTCCACGTGCATGT | 0.01
19 | AGTAGCACGTGGTGTT | -0.18
20 | TTCGTCACGTGTGTAG | -0.02
21 | GGGTTCACGTGAGGCG | 0.42
22 | TTTGACACGTGCTTGA | -0.08
23 | GAGGACACGTGTAGGA | 0.07

Row | Sequence | relative binding free energy [kcal/mol]
24 | GTTGGCACGTGTGTAG | 0
25 | GGTATCACGTGGGGCC | 0.14
26 | ATTGACACGTGTTGTC | -0.03
27 | AAAAGCACGTGATGTG | 0.08
28 | GGTTACACGTGACGCG | 0.33
29 | TGCTGCACGTGGGGTG | -0.21
30 | ATTTACACGTGTGACT | 0.27
31 | GTTAACACGTGTGTAA | 0.11
32 | TGGGTCACGTGGGTTG | -0.03
33 | TGGGACACGTGAACGG | 0.31
34 | TTTGACACGTGATATA | -0.06
35 | TCGAGCACGTGTGGGT | -0.13
36 | TGGGACACGTGTTTTG | 0.18
37 | GTGTTCACGTGGTGTT | 0.23
38 | GGGCGCACGTGGCGAG | -0.04
39 | GGGAGCACGTGATATA | 0.14
40 | TGCGCCACGTGTATGT | -0.02
41 | GTAGACACGTGGCAGG | 0
42 | TTGGGCACGTGTCATG | -0.07
43 | GTTATCACGTGGGTAG | 0.01
44 | AAATGCACGTGGGATT | -0.03
45 | GGTGTCACGTGGAAGG | 0.07
46 | TTGGACACGTGGTAAG | -0.09

Row | Sequence | relative binding free energy [kcal/mol]
47 | GTGTGCACGTGTGCTC | 0
48 | TTAGGCACGTGCGATT | -0.05
49 | CTGAGCACGTGTGTGG | -0.1
50 | TAGGTCACGTGAGAGG | 0.21
51 | TGGGGCACGTGTGTTC | -0.05
52 | TAAGGCACGTGTTCTG | -0.1
53 | ATAAGCACGTGTGCGG | -0.17
54 | GGCATCACGTGTTGTT | 0.2
55 | ATGTGCACGTGCAGTG | 0.01
56 | GGGTGCACGTGCAGGC | 0.11
57 | AGGTTCACGTGCGGAA | 0.16
58 | TGTGTCACGTGGGTAT | -0.03
59 | ATTTGCACGTGTGACA | 0.09
60 | CGGGGCACGTGGAGAC | -0.02
61 | AGTGACACGTGTAGCA | 0.13
62 | GTTATCACGTGGTATA | 0.07
63 | GGAATCACGTGTGTTA | 0.21
64 | CGCGCCACGTGGAGGG | -0.13
65 | GGTAACACGTGTGGAA | 0.18
66 | CGCGGCACGTGGTCGG | -0.32
67 | GTCTTCACGTGTAGGG | 0.19
68 | TGCAACACGTGTTTTG | -0.01
69 | ATGGGCACGTGCGAAT | -0.15

Row | Sequence | relative binding free energy [kcal/mol]
70 | CGTGCCACGTGATTGT | -0.04
71 | GTAAGCACGTGGATGG | -0.14
72 | AGTTTCACGTGTTAGT | 0.36
73 | GTGATCACGTGAGAGG | 0.34
74 | GTTATCACGTGACGTG | 0.26
75 | TCGTGCACGTGGTAGA | -0.15
76 | GGTCGCACGTGTTTAA | 0.06
77 | TCGTGCACGTGAATTT | 0.33
78 | TGCGTCACGTGTAAGT | 0.13
79 | AGGGACACGTGACAGG | 0.19
80 | GGAGTCACGTGGCTGT | 0.2
81 | TTTGACACGTGAAGTT | 0.26
82 | GGGTACACGTGGCTTA | 0.01
83 | TTGTTCACGTGAATAA | 0.39
84 | TATATCACGTGGCATG | 0.06
85 | GTGGCCACGTGTTAAG | 0
86 | TGTCTCACGTGAAATG | 0.42
87 | CGATACACGTGGATGG | 0.01
88 | CATTACACGTGGTTTG | 0.12
89 | GTATTCACGTGCAGAG | 0.33
90 | TGGTTCACGTGATGAC | 0.38
91 | TGTATCACGTGAGCGT | 0.24
92 | TATGGCACGTGAGATG | 0.06

Row | Sequence | relative binding free energy [kcal/mol]
93 | TGTGACACGTGTGTTG | -0.05
94 | TTTTGCACGTGAATCG | 0.06
95 | ATTGTCACGTGTAAGT | 0.26
96 | ATATTCACGTGTCTTG | 0.27
97 | TAGTTCACGTGGTTGT | 0.23
98 | ATTTCCACGTGTAAGT | 0.24
99 | ACTTGCACGTGGTTTA | -0.09
100 | GTGTACACGTGGCGGA | -0.03
101 | GGGGGCACGTGTTAAC | -0.03
102 | GCATGCACGTGGTGTA | -0.2
103 | TCTGTCACGTGCTTTG | 0
104 | ATAATCACGTGTGGGG | 0.18
105 | CATTTCACGTGTTGGC | 0.41
106 | TATTACACGTGCTTTG | -0.01
107 | GTATGCACGTGTGCAT | -0.09
108 | TGTGGCACGTGTAGTC | 0.09
109 | AGGTACACGTGAGTTT | 0.4
110 | AGGGCCACGTGTAGGA | 0.01
111 | TCGTTCACGTGTTAAG | 0.33
112 | CGTAACACGTGTGGGC | 0.11
113 | TATTTCACGTGATGAA | 0.34
114 | TGCTTCACGTGCGTTG | 0.21
115 | GTGGTCACGTGGCGTC | 0.08
